Assay results taken from the supplement of paper PMC3334620.
The full ranking holds about 33,000 sequences; the median of “E-score (-0.5 to 0.5)” is about -0.036, and the highest 2% start at about 0.37. Some of the results follow.

The sequences below were run against T1, Yer064c (UniProt P40041) (assay: PBM E-score (8-mer binding enrichment) (E-score (-0.5 to 0.5)); higher = stronger / more preferred TF binding; most listed sequences are background and not binding sites). Conditions: protein concentration: 200 nM; construct: GST-full length.
T1 sequence: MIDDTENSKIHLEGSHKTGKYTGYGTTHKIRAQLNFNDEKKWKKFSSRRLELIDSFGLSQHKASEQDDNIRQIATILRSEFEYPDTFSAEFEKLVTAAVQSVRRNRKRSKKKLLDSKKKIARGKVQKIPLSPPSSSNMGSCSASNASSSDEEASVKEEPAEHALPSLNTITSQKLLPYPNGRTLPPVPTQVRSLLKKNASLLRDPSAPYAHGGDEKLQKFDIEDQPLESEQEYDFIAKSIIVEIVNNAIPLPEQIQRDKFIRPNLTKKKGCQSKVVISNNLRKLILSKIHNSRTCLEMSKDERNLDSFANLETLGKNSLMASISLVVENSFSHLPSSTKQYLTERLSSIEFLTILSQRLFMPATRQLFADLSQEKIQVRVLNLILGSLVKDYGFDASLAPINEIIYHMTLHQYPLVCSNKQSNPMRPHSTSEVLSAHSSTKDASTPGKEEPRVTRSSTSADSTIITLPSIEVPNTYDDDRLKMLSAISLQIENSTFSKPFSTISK
Procedure, shortened: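 Detection of bound protein used fluorescent anti-GST, with scans normalised by masliner. The proteins were GST-tagged yeast transcription factors applied at about 100-200 nM to universal all-10-mer Agilent arrays made double-stranded by primer extension. Each ungapped eight-base word, pooled with its reverse complement, was scored with an E-score from the Universal PBM Analysis Suite.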

Row | Sequence | PBM E-score
1 | AGGTTCGG | -0.193
2 | ATACATTA | 0.123
3 | AGGCGACA | -0.245
4 | GCATTTCA | -0.128
5 | AATCCGAA | 0.0514
6 | CAGGGAAA | -0.14
7 | AAGCTGGC | -0.183
8 | AGACCGGC | -0.0648
9 | AATGTCCC | -0.152
10 | GTACCCAA | -0.0895
11 | CACATCTA | 0.0403
12 | CTGCCCTC | -0.185
13 | CAGAACCC | -0.0369
14 | AGTATACC | 0.00468
15 | GACTAGTC | 0.408
16 | GCGACCAC | -0.244
17 | AGAACCGA | -8e-05
18 | CAGGTGCG | -0.114
19 | AGGTCCCC | -0.281
20 | AGTCGTGC | 0.371
21 | ATGTTAGC | -0.0802
22 | AGTTGCAC | -0.131

Row | Sequence | PBM E-score
23 | ACTCAATC | 0.404
24 | TAGTTAGA | 0.271
25 | CCATGAAC | 0.0048
26 | AGAACGGC | -0.172
27 | TATGGACA | -0.125
28 | ACGTTCGC | -0.131
29 | ACTGGCTC | -0.0418
30 | AATCAACG | 0.308
31 | CAAAAATA | 0.17
32 | GGTTGTAC | -0.0258
33 | ATGAACGC | -0.015
34 | GTCGAAAC | 0.131
35 | GCCACGCC | -0.295
36 | ATAGCGTC | -0.148
37 | CTACAGGC | -0.169
38 | CACTTCGA | -0.0426
39 | ACATGTTG | 0.0417
40 | GCGAGGGA | -0.189
41 | ACATTTCC | -0.0856
42 | CCAAATCC | -0.226
43 | GATTCAGC | 0.258
44 | GCCTAGAA | -0.146

Row | Sequence | PBM E-score
45 | TCCTATAA | 0.0495
46 | CAATAATG | -0.0841
47 | GAAGACAA | 0.0132
48 | TGAAGAAA | 0.113
49 | CCACATCC | -0.137
50 | CAGACTGG | 0.0136
51 | CTATCCGA | -0.0351
52 | AGATTGAT | 0.0609
53 | AAGACGTG | -0.0225
54 | GCATAGTA | -0.208
55 | CATGTTGA | 0.209
56 | GCCGTCTA | -0.264
57 | ATCTGTCG | -0.177
58 | CCATGCTA | -0.0909
59 | ATCCCTTA | -0.0806
60 | TCTTCAAA | 0.09
61 | GCCTACCA | -0.192
62 | ATAATGAG | 0.181
63 | CACACCTG | -0.0672
64 | AGGCACGG | -0.0585
65 | CTCAGTTC | 0.0697
66 | AAACTGAT | 0.0751

Row | Sequence | PBM E-score
67 | AAGTCTTA | 0.213
68 | GTAACAAC | -0.0396
69 | GGCGTGCA | -0.23
70 | GCTAACAA | -0.0268
71 | CTAACAAA | 0.0927
72 | TACACACA | 0.157
73 | ACCATAGA | 0.0535
74 | CGTCGATC | 0.0258
75 | CTCATCGC | 0.206
76 | GTGCATGA | 0.178
77 | AACCAGTA | -0.0555
78 | CCTGTGCG | -0.245
79 | CAACTTAA | 0.0943
80 | CGATGTTA | -0.128
81 | AGTAGAAA | -0.0164
82 | CACTTACC | 0.0118
83 | GAAGTAAC | -0.164
84 | CGGGGAAA | -0.181
85 | TGCCATAA | -0.147
86 | GTGCAACA | -0.0209
87 | TACCCTAA | -0.0746
88 | GTGTGATA | 0.00432

Row | Sequence | PBM E-score
89 | AGGTTTAT | -0.0489
90 | AGGGTACC | -0.188
91 | GCGACATA | -0.0374
92 | AAGATGGC | -0.00295
93 | GATATCCC | -0.216
94 | AATTCACC | -0.0422
95 | ACGGATCC | -0.152
96 | CAATGTGC | -0.09
97 | GATATGCA | -0.0494
98 | ATGATCGA | 0.0635
99 | GTCTGGAA | 0.0106
100 | GACGTTAC | -0.00375
101 | AAGGAGCG | -0.22
102 | ATTATGCC | -0.113
103 | CAGACATG | -0.117
104 | AGCTACCC | -0.123
105 | ACAACCGA | -0.164
106 | CGACCGTC | -0.244
107 | AATTCACT | 0.00494
108 | AGCGCGCG | -0.0301
109 | ATCCTCAC | -0.00551
110 | ATTGAAGA | 0.181
